Measurements: article PMC4336329 (PLoS ONE, 2015)
Among all 310,000 compounds or so, about 2,200 (0.71%) showed an effect of 50% or more. The effect is printed as a negative number. The list shows a part of the results.

The compounds below were run against human ether-à-go-go-related gene (hERG) potassium channel (human, UniProt Q12809) (assay: primary screen, population patch clamp on CHO cells stably expressing hERG).
Sequence of human ether-à-go-go-related gene (hERG) potassium channel (Q12809 whole entry, looked up): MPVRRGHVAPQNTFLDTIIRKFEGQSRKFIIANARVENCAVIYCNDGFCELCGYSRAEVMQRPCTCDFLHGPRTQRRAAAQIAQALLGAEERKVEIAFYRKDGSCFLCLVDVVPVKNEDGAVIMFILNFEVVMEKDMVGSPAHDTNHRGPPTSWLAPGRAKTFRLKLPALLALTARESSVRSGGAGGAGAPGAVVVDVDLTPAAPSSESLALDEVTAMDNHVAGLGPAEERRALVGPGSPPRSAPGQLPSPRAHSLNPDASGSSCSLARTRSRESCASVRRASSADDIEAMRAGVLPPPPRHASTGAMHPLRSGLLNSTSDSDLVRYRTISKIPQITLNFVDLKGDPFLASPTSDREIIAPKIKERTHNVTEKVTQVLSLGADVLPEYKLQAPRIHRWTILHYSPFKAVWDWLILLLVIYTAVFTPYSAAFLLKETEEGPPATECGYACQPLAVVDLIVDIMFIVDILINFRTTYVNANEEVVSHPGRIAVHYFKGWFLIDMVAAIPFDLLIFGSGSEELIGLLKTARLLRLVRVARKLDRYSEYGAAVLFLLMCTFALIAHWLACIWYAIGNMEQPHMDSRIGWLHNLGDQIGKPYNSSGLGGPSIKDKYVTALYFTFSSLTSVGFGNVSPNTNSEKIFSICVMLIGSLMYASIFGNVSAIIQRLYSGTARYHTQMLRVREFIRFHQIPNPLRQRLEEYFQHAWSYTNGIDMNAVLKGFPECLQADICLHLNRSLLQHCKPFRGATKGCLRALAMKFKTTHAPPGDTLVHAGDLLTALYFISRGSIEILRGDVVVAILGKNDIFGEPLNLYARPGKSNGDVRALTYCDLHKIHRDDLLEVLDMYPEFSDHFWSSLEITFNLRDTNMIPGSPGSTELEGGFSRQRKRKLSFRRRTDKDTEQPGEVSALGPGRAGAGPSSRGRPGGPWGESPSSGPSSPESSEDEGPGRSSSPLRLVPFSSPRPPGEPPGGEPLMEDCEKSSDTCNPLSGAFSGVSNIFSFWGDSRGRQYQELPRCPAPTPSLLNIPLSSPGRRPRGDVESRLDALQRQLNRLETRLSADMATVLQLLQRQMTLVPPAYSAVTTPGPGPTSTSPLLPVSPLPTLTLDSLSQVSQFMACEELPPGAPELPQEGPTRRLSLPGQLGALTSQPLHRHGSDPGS

Structure (SMILES) | hERG current change (%, negative = inhibition) at 1uM [%]
CC(/C=C/c1ccc2c(c1)OCO2)=N\NC(=O)c1ccccc1 | 11.9
COc1ccc(CN(Cc2cc3cccc(C)c3n3nnnc23)C(=O)N2CCOCC2)cc1 | 21.8
CCOC(=O)C1CCN(C(c2cccs2)c2sc3nc(C)nn3c2O)CC1 (stereo not shown) | 3.92
CCC(=O)Nc1ccc(N2CCOCC2)c(S(=O)(=O)Nc2ccc(OC)cc2)c1 | 7.08
CCN1CCN(CCc2nc3cc([N+](=O)[O-])ccc3n2C)CC1 | -1.88
CCOc1ccc(OCC)c(NC(=O)Cn2cccc2)c1 | 3.15
CN(CC(=O)Nc1cccc(F)c1)C(=O)c1cc(-c2ccccc2)nc2ccccc12 | 20.8
Cc1cccc(C)c1OCC(=O)Nc1ccccc1C(F)(F)F | 12.6
O=C(O)c1ccc(S(=O)(=O)N2CCSCC2)cc1 | 19.9
Cc1ccc(C(=O)Nc2ccc3ccccc3n2)cc1 | -4.83
Cc1onc(-c2ccccc2)c1C(=O)OCC(=O)N1CCN(c2ccccc2)CC1 | -2.51
CCC(=O)OC1(c2ccccc2)C(C)CN(C)CC1C.Cl (stereo not shown) | 8.82
CC1(C)CC(NC(=O)c2cccc(F)c2)CC(C)(C)N1 | 18.1
Cc1cc(C)n(C(=O)COc2ccccc2[N+](=O)[O-])n1 | 8.89
O=c1c2ccccc2nnn1CSc1nnc2ccccn12 | 6.78
CCOCCCNC(=O)C1c2ccccc2C(=O)N2CCc3ccccc3C12 (stereo not shown) | 5.53
C[n+]1ccc(-c2ccncc2)cc1.[I-] | 14.5
COc1ccccc1CNC(c1ccccc1)c1ccccc1 | 9.08
O=C(O)c1ccccc1N=Cc1c(O)n(-c2nccs2)c(=O)c2ccccc12 | 13.1
COC(=O)[C@H](Cc1ccccc1)NC(=O)Nc1ccc(C)cc1 | 10.5
Cc1cc(C)c(NC(=O)C2CCN(c3cnccn3)CC2)c(C)c1 | 11.2
CCN1C(=O)[C@H]2[C@@H](c3ccc(-c4ccc(OC)cc4)cc3)N3CCCC[C@@]3(C(=O)OC)[C@H]2C1=O.O=C(O)C(F)(F)F | 3.6
COc1ccc(C)cc1NC(=O)NNS(=O)(=O)c1ccc(NC(C)=O)cc1 | 9.8

Structure (SMILES) | hERG current change (%, negative = inhibition) at 1uM [%]
O=C(NC1CCN(Cc2ccccc2)CC1)c1cccc(Br)c1 | -20
COc1ccc(CN2CCCC(CNC(=O)c3ccc(F)cc3)C2)cc1OC (stereo not shown) | -54.3
O=[N+]([O-])c1ccc2c(c1)C=C1CCCCC1(N1CCCCC1)O2 (stereo not shown) | 7.3
O=C(c1cc(-c2ccccc2)n[nH]1)N1CCN(S(=O)(=O)c2ccccc2)CC1 | 1.72
CCOC(=O)c1ccccc1OCc1cc(/C=N/NC(=O)c2cccnc2)ccc1OC | 11.6
CCCCn1c(NCc2ccccc2O)nc2ccccc21 | 13.8
COc1ccc(-c2nc(-c3cccnc3)no2)cc1OC | 11.4
O=C(CSc1nc(C(F)(F)F)cc(=O)[nH]1)Nc1cccc2ccccc12 | -11
Fc1cc(F)cc(NC(=S)Nc2ccccc2N2CCOCC2)c1 | 1.78
Cc1cccc(-c2nc(N)nc(N)n2)c1 | 14.2
O=S(=O)(NCc1ccccc1)c1cccc2nonc12 | 0.358
COC(=O)CSc1nnc(-c2cccnc2)n1-c1cc(OC)cc(OC)c1 | -12.6
Cc1cccc2sc(NNC(=O)c3ccc(S(=O)(=O)N4CCc5ccccc5C4)cc3)nc12 | 17.6
O=C1CC(c2ccccc2)n2nc(NC(=O)c3ccccc3)nc2N1 (stereo not shown) | 1.42
Cc1cc2c(cc1C)CSC(c1ccc3ccccc3c1O)SC2 | 12.8
CCC1CCCCN1CC(C)(C)NS(=O)(=O)c1ccccc1 (stereo not shown) | 2.34
CCOC(=O)c1ccc(NC(=O)CSc2ccc(-c3cccnc3)nn2)cc1 | 0.928
Cn1c(/C=N/O)nc2ccccc21 | 8.01
CCONC(=O)Nc1ccccc1 | 20.8
CC(O)CNc1ncnc2cc(-c3ccc(F)cc3)sc12 (stereo not shown) | 5.95
O=C(NCCCN1CCC(Cc2ccccc2)CC1)C1CCC(=O)N1C1CCCC1 (stereo not shown) | 13
O=C(O)CCC(=O)N(Cc1ccccc1)Cc1ccccc1 | 13.4
COCC(C)NC(=O)c1nn(Cc2ccccc2)c(=O)c2ccccc12 (stereo not shown) | 7.12

Structure (SMILES) | hERG current change (%, negative = inhibition) at 1uM [%]
CCOC(=O)c1sc(N2C(=O)C(O)=C(C(=O)c3ccc(C)o3)C2c2ccc(OC)c(OC)c2)nc1C (stereo not shown) | 11.3
CCOc1ccccc1N(CC(=O)Nc1ccccc1C(=O)N1CCCC1)S(C)(=O)=O | 10.9
CCN1CCN(CCCNC(=O)c2cn(CCOC)c(=O)c3c2c2ccccc2n3C)CC1 | 0.221
Cl.Oc1cccc(Nc2ncnc3c2oc2ccccc23)c1 | 10
CCOC(=O)Cc1c(C)nc2cc(-c3ccc(C)cc3)[nH]n2c1=O | 10.7
Cc1cnc(C(=O)OCC(=O)Nc2ncc(Cl)cc2Cl)cn1 | 26.1
CNC(=S)NNC(=O)c1sc(-c2cc(C)on2)nc1C | 13.6
NNC(=O)CSc1cccc2cccnc12 | 3.95
O=C1CN(C(=O)c2ccccc2F)C(c2ccc(F)cc2)c2cc(Br)ccc2N1 (stereo not shown) | 3.87
O=c1[nH]c2ccccc2c(=O)n1Cc1ccco1 | 6.5
CN(c1ccc(C(=O)NCc2ccncc2)cc1)S(=O)(=O)c1ccc(Cl)cc1 | 8.9
CCOC(=O)c1sc(N=NC2=C(O)CC(C)(C)CC2=O)c(C(=O)OCC)c1C | 9.12
C=CCc1ccc(OC(=O)NC2CCCCC2)c(OC)c1 | 2.84
O=C(NC1CCCC1)c1cc(-c2cccc(Cl)c2)on1 | 8.04
COc1ccc(NS(=O)(=O)c2ccc(NC(=S)NC(=O)C(C)C)cc2)cc1 | 6.14
Cc1cnc(C(=O)OC(C)C(=O)Nc2cccc3ccccc23)cn1 (stereo not shown) | 21.5
COc1ccc(C(=O)OCC(=O)NC2CCCCCC2)cc1OC | 10
Cn1c(CN2CCOCC2)nc2cc(NC(=O)c3ccc(F)cc3)ccc21 | -1.78
COc1cc(CCC(=O)OCC(=O)Nc2ccc(F)c(F)c2)cc(OC)c1OC | 3.59
Cn1c(SCC(=O)NC2CC2)nnc1-c1ccccc1Cl | 11.6
O=C(CNC(=O)C1CC(=O)N(c2cccc3ccccc23)C1)Nc1ccccc1Br (stereo not shown) | 10.7
COc1ccccc1-n1nnnc1SCC(=O)NC(=O)Cc1ccccc1 | 1.92
CC(CC(=O)C1C(C)C=CCC1(C)C)NNC(N)=O (stereo not shown) | 24.6

Structure (SMILES) | hERG current change (%, negative = inhibition) at 1uM [%]
C/C(=N\NC(=O)C1CC1)c1ccc(C)c(C)c1 | 18.1
Cc1ccc(-n2c(-c3cnccn3)n[nH]c2=S)cc1 | 10.1
CN(CCc1ccccn1)C(=O)c1ccc(OC2CCN(CCc3ccccc3)CC2)cc1 | -5.56
O=C1CC(c2ccco2)CC(O)=C1C=NCCN1CCN(C(=O)Nc2ccc(Cl)cc2)CC1 (stereo not shown) | -16.1
CC(c1ccc(F)cc1)n1cc(S(=O)(=O)N2CCCC2)ccc1=O (stereo not shown) | -3.16
COc1ccc(/C=C/C(=O)Nc2cc(S(=O)(=O)N3CCCCC3)ccc2N2CCCCC2)cc1OC | 1.94
C=CCc1c(C)nc(SCCC)[nH]c1=O | 8.56
O=C(OCc1nnc(-c2ccc([N+](=O)[O-])cc2)o1)C1CCN(C(=O)c2ccc(F)cc2)CC1 | -71.4
O=P(OC1CCCCC1)(OC1CCCCC1)C(O)c1ccccc1 (stereo not shown) | 1.82
COCCCN(CC(=O)O)S(=O)(=O)c1cccc(Cl)c1 | 5.55
COCCn1c(Cc2ccccc2)nnc1SCC(=O)NC1CCCCC1 | 15.2
COc1cc(CC(NC(C)=O)C(=O)NC2CCN(C(=O)C3CC3)CC2)cc(OC)c1 (stereo not shown) | 10.5
COc1ccc(-c2oc3cc(OC)c(O)c(OC)c3c(=O)c2OC)cc1O | 9.27
OC1CCC(Nc2ncnc3sccc23)CC1 (stereo not shown) | 15.2
COc1ccc(N2C(=O)CC(SCC(=O)O)C2=O)cc1 (stereo not shown) | 4.69
C1CCc2nc3c(nc2C1)CCCC3 | -4.29
COc1ccc(C2CC(=O)c3c(O)cc(O)cc3O2)c(CC=C(C)C)c1OC (stereo not shown) | 13.1
Cc1ccc(NC(=O)c2cnn(-c3ccccc3)c2C)cc1C | 6.32
Cc1ccc2nc(-c3ccc(O)cc3)c(Nc3ccc4c(c3)OCCO4)n2c1 | 2.05
CCCc1nnc(NC(=O)CNc2ccc(F)cc2)s1 | 1.24
O=S(=O)(c1ccc(Cl)cc1)n1c(Cc2ccccc2)nc2ccccc21 | 9.19
CC(Oc1ccc(Cl)cc1Cl)C(=O)Nc1ccc2oc(-c3ccncc3)nc2c1 (stereo not shown) | 9.73
